Values marked as one replicate rest on one cluster of the flow cell; about a third of the high ones do not repeat.
Tested on: ATP
Test: switch fluorescence ratio, 500 uM ATP over buffer (Cy3 cluster intensity, sum of 5 cycles each) (fold (ratio)); higher = stronger signal-on switching upon ATP binding; sequences stand for … in TCGTCGGCAGCGTCAGATGTGTATAAGAGACAGTTTTTTTTTTTTTTTTTTTTTTTTT…TC
Settings: aptamer strand: ATP DNA aptamer (quencher-CACCTGGGGGAGTATTGCGGAGGAAGG + anchor), 100 nM annealed; ATP concentration: 500 uM; one replicate
Procedure, shortened: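 Clusters carrying Cy3-labelled switching strands on a modified Illumina MiSeq flow-cell were annealed to 100 nM quencher-labelled ATP aptamer and imaged in selection buffer. They were imaged again after 15 min with 500 uM ATP at 22 °C, over five buffer/ATP cycles with NaOH stripping and re-annealing in between. For each cluster, the fluorescence ratio is the summed Cy3 intensity of the target cycles divided by that of the buffer cycles, averaged per switch-domain sequence. Clusters outside 100-1000 RFU were left out.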
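Note: ATP exposure 15 min at 22 °C before imaging.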

Sequence	switch fluorescence ratio
ATTCTTGTTT	1.02
GTAGTACTGT	1.04
ATGTGCCCGC	1.03
TATCTGATAG	0.987
ATAAGTTGTA	1.02
AGTGAGACT	1.01
GAGTACGACT	0.975
GTATCAGAGA	0.995
TGTTCGTGGG	1
TTCGTGAAGG	0.967
TCGGGACGGA	1.01
AACGGACTGG	1.03
GCTATGGCCA	1
ACGGTTGGGA	1.08
AAATATTGAT	0.969
TGTTCAAACT	0.995
GTGAGGCACT	1.04
ACCAATCAA	0.973
GAGCAAGTTT	1.04
GCTTGATTAC	0.988
GGTTCATTCA	0.999
GGGCTCCCGC	1.01
CTGTTTAGAA	1.07
GCTGGGCCTT	0.977
CGCGTCAAC	1.45
GTCTGCAGTC	1.09

Sequence	switch fluorescence ratio
AGGACAGTCT	1.07
GGACTAGTCC	1
AAAGTTGGTT	0.985
GGCATGGATC	0.998
AGGTAGCGAT	1.15
TAAGTTTTTG	0.999
TTCTCACAGA	1.68
CGGGTTGACT	1.01
ACGAGCTTAT	1.26
ACTCTGCTGA	2.55
AGCTTTGTGT	0.951
TAGCTGGCCG	1.06
GGGAGAACCG	0.956
TGTATGTTAT	1.02
ATACTGCGCA	1.19
AAGAACAGCG	1.03
GTCACCCGGG	1.07
GACCAGGGTC	1.03
CTTGGGTGGA	0.99
TTTGTTAAAC	1.04
GCCTAAGTTC	1.01
TGAAATTGAT	1.01
ATACAGTGC	1.04
CGATACTGCA	1.06
TCTCGGATGA	1.04
CGATTTTTTA	1

Sequence	switch fluorescence ratio
CACATAAG	1.03
CTAGCATCGG	1.05
GCCGCCGGGT	1.05
ATGTCGTCTA	0.999
CCAAACAGC	1.07
GCAGGCAGTC	0.975
ACATTTGCAT	0.981
GTGAGAGGAC	1.04
CTAGCGCTGC	0.993
CCCTATACAC	1.3
CATTGGCAAC	1.33
GGGGTACTAA	1.15
ATAAAACTGA	1.01
ATAGTAGAGC	0.987
AGGCACACCA	1.24
CTTGGATGAT	1.05
GTCTCATCAG	1.01
GACTTGCCAA	1.11
GTTCTAGTTG	0.94
TTAAGGCTGT	1.01
CCCGTATACG	1.1
CTCGAGGCCA	1.07
CTACGCTAT	5.02
AAACGCACAT	1.18
TAATGATATC	1.06
TCACGACTGA	1.06

Sequence	switch fluorescence ratio
GTAATTCACG	1.03
AACAGCAGTG	0.995
GCGTATAACA	0.98
CAAACTGGGA	0.998
CATAGAAGTC	0.988
TAGGAGAAAA	1.02
GACATTTTAG	1.05
AGTCGTTAGG	1.05
CCAATGCAAT	5.79
AGGATACCAT	1.01
GCCAGTGACG	1.09
CCCTGCCTCT	1.06
GTCAGGGGAG	0.93
AAATCTATAC	1.13
AGGGAATCCG	0.944
GGTACAAGGA	1.01
GGAGATTGTA	1.02
CCCTCTTTAG	1.01
TTGAGTTTCT	0.957
AGGGTTTAG	1.01
TTCCGATGTT	1.28
CTTACGGACA	1.1
CGAGGGAGAT	0.975
CAAGTTTCAC	0.99
GCCAGGCTTC	0.994
TCTGTGCATT	1.25

Sequence	switch fluorescence ratio
CTAGAGTAAG	0.956
TAGCTAAATG	1.06
AAAGGAGTTC	0.938
ATAACACCGC	1.19
TCCTGCTGTC	1.24
CATAAATAGG	1
CCGAGGAGTA	1.17
CTGGCCTGCT	1.04
CCACGTGCGA	1.1
TCCTTAAACC	1.08
GAGACATT	0.963
AGTGATCCGG	0.987
TAGACCACAG	1
GGTGGACGAC	0.985
CGTAGGGTAG	0.961
GAGTGCATCT	0.994
GCCGATTTGT	0.985
TCGCAATTTA	4.04
AGCTTGCGCT	1
ATATGTGCT	0.968
AGCACCATAT	1.16
ACGGTGAGTA	0.994
AATAGTTGCC	1.01
CCCCAAGTGT	4.78
GATTCGTAGC	1.02
CAGTTGCTGG	0.983

Sequence	switch fluorescence ratio
GTACGAGGGT	0.997
CACTCTGTTG	0.998
TTCACTTACT	1.12
AGTGGGGAGT	0.987
AAGGCTTGCG	0.96
CTAGTTGAGT	0.978
ACATAGGGTG	1.19
GAAAAGGGTC	0.982
TAGACGGATC	0.941
AAGGTGCTC	1.19
GATAGCGTTT	1.02
GATTAGATGG	0.962
ACACTATTAG	1.03
TGTTCATTTC	0.982
CAGTAAATAG	3.32
ACAATGAGCG	1.08
TGGGGCGTAA	1.03
ATCGCGTTA	0.98
ACGAGAATAG	1.08
GCCCGCGGGG	0.974
AGGGGACTGG	0.996
CTGTAGTTAT	1.27
TGCTGATCGC	1.13
